Assay results: PMC4336329 (PLoS ONE, 2015)
The campaign covered roughly 310,000 compounds. About 14,000 (4.5%) showed an effect of 50% or more. The effect is printed as a negative number. The list shows a part of the results.

What follows are compounds tested against human ether-à-go-go-related gene (hERG) potassium channel (human, UniProt Q12809) (assay: primary screen, population patch clamp on CHO cells stably expressing hERG).
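Also: peak tail current of the secondary pulse compared with the same well before compound.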

Sequence of human ether-à-go-go-related gene (hERG) potassium channel (Q12809 whole entry, looked up): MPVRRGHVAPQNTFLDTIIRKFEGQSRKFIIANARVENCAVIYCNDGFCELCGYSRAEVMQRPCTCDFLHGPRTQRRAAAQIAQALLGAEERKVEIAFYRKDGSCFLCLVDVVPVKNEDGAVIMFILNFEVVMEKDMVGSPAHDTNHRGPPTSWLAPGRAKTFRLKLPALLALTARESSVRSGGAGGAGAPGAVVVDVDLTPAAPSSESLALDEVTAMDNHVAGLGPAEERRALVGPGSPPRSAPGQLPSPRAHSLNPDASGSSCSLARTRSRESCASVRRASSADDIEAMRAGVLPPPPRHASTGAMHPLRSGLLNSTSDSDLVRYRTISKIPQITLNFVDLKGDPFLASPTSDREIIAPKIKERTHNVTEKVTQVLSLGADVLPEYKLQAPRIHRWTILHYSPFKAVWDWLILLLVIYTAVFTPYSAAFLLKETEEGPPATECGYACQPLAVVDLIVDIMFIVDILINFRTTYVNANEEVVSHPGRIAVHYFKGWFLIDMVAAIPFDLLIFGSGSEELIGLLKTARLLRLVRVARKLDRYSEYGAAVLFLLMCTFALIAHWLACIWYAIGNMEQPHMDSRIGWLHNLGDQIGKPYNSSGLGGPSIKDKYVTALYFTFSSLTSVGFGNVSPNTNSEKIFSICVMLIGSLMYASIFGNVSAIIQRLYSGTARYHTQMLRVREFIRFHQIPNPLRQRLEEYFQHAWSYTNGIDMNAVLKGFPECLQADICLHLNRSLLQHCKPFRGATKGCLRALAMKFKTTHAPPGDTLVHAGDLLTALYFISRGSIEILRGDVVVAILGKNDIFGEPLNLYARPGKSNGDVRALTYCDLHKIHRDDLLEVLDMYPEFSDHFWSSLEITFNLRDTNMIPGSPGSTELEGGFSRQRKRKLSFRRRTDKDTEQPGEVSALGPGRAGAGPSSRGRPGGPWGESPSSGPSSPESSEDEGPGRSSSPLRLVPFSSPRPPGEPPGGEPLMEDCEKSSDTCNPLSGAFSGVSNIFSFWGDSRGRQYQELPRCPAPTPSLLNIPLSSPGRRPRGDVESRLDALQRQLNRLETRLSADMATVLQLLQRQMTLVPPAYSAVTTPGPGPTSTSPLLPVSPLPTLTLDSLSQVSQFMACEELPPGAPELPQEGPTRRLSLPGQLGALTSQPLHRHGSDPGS

Structure (SMILES) | hERG current change (%, negative = inhibition) at 10uM [%]
C/C(=N/NC(=O)CNc1ccc(C)cc1)c1ccc(Br)s1 | -4.34
COc1ccccc1N1CCN(C2CCCN(C(=O)c3ccccn3)C2)CC1 (stereo not drawn) | -0.115
CCOC(=O)C1(Cc2ccccc2)CCCN(C2CCN(C(C)=O)CC2)C1 (stereo not drawn) | 3.82
COc1ccc(NC(=O)C(CC(=O)O)C(C)c2ccccc2)cc1 (stereo not drawn) | 11.2
Cc1cccc(N(C)c2ccc3cc(S(=O)(=O)N4CCCC4)ccc3n2)c1 | 17.3
O=C(O)CNS(=O)(=O)c1ccc2c3c(cccc13)C(=O)N2 | 15.6
C/C(=N\NC(=O)Cn1c(-c2ccccn2)nc2ccccc21)c1ccccc1 | -1.69
N/C(=N\OC(=O)c1ccccc1[N+](=O)[O-])c1cccnc1 | -2.9
Cc1ccccc1CN1C[C@@H]2C[C@@H](c3ccc4nsnc4c3)N3CCC[C@@]23C1=O | -18.1
CN(C)Cc1nnnn1-c1cccc(-n2nnnc2CN(C)C)c1 | 12.3
C=C(C)COc1ccc(-c2ncncc2Oc2ccc(OC)cc2)c(O)c1 | -17.3
O=C(Nc1ccc(F)c(Cl)c1)c1nsc(Cl)c1Cl | 10.7
COc1ccc(CNS(=O)(=O)c2ccc(F)c(C(=O)Nc3ccccc3OC)c2)cc1 | 13.9
CNc1c([N+](=O)[O-])ncn1C | 4.95
CC(=O)N1C(C)c2ccccc2C(C)(C)CC12CCCCC2 (stereo not drawn) | -16.2
COc1ccc(S(=O)(=O)N2CCN(CC(=O)NC3CCCC3)CC2)cc1 | 0.823
CCCCOc1ccc(C(=O)Nc2ccc3c(c2)OCO3)cc1 | 11.9
CN(C)CCCNc1ncnc2c1cnn2-c1ccccc1 | -22.8
Cc1nc(-c2ccc(F)cc2)c(CC(=O)N2CCN(S(=O)(=O)c3cccc(F)c3)CC2)s1 | 6.48

Structure (SMILES) | hERG current change (%, negative = inhibition) at 10uM [%]
Cc1ccc(NC(=O)c2cc(NC(=O)c3ccco3)ccc2N2CCOCC2)cc1Cl | -10.3
Cc1cc(C(=O)OCC(=O)c2ccccc2)c2ccccc2n1 | 23.1
C=CCNc1ncnc2c1[nH]c1ccccc12 | 9.69
CCOC(=O)c1[nH]cnc1C(=O)O | -2.12
COC(=O)c1ccc(N=NNc2cccc(Br)c2)cc1 | -2.25
CC(C)COC(=O)C1C2C=CC3(CN(C4CCCC4)C(=O)C13)O2 (stereo not drawn) | -15.4
COC(=O)c1cc(S(=O)(=O)N(C)C2CCCCC2)c[nH]1 | 4
O=C(NC(=S)Nc1nc(-c2ccc([N+](=O)[O-])cc2)cs1)c1ccco1 | 16.5
CC(=O)c1ccc(NC(=O)CN2C(=O)COc3ccc(S(=O)(=O)N4CCCC4)cc32)cc1 | -27.9
COc1ccc(NC(=O)COc2ccc(C)nc2[N+](=O)[O-])cc1S(N)(=O)=O | -3.79
CCOc1ccccc1NC(=O)c1ccc(OCC)c([N+](=O)[O-])c1 | -10.3
CNC(=O)Oc1cccc(-c2cn3cc(OC(=O)NC)ccc3n2)c1 | -7.38
O=C1CCN(C(=O)Cc2ccccc2[N+](=O)[O-])CC1 | 18.9
CN(C)CCCC1Sc2ccccc2Sc2ccccc21.O=C(O)C(=O)O (stereo not drawn) | -56.1
Cc1ccc(-n2cccc2/C=C2/NC(=O)N(CC(=O)Nc3cccc(C)c3)C2=O)cc1 | 8.68
Cc1c(Cl)cccc1NC(=O)c1ccccc1-c1ccccc1C(=O)O | 17.3
CCN(CC(=O)Nc1c(F)cccc1F)C(=O)c1cc2ccccc2oc1=O | 3.1
C=CCN1CN(S(=O)(=O)c2ccc(OC)cc2)c2nc3ccccc3nc21 | -2.92
CN(C)S(=O)(=O)c1ccc(Cl)c(C(=O)Nc2ccc(S(=O)(=O)N3CCOCC3)cc2)c1 | 0.475

Structure (SMILES) | hERG current change (%, negative = inhibition) at 10uM [%]
O=C(CCl)NC1CCCc2ccccc21 (stereo not drawn) | 5.6
O=C(O)C(=O)O.c1ccc(-c2ccccc2OCCCN2CCCCC2)cc1 | -74.6
O=C(N/N=C/c1cn(-c2ccccc2)nc1-c1cccs1)c1ccccc1F | 18.9
CCCNC(=O)c1ccc(CN2CCOCC2)cc1 | 8.4
CC1CCCCC12NC(=O)N(CC(=O)NCc1ccco1)C2=O (stereo not drawn) | -3.53
Cc1onc(-c2c(Cl)cccc2Cl)c1C(=O)ONC(=O)c1ccccc1 | 9.59
CSc1n[nH]c(NC(C)=O)n1 | 10.6
S=C(Nc1ccc(Cl)cc1Cl)N1CCOCC1 | 11.1
O=C(c1ccc(F)cc1)C1CCN(C(=O)Nc2ccc(F)cc2F)CC1 | -11
O=S(=O)(Nc1ccon1)c1ccc(F)c(F)c1 | 9.95
CCN(CC(=O)NC(C)(C)C)Cc1cc(=O)n2c(-c3ccccc3)csc2n1 | 7.25
NC1=NS(=O)(=O)NC1c1cccc(Cl)c1 (stereo not drawn) | 16.1
COc1ccc(CCNC(=O)CCC(=O)Nc2ccccc2[N+](=O)[O-])cc1OC | 7.49
CCCCNC(=O)O[C@H]1C[C@@H]2CCN3C(=O)CCC[C@H]([C@H]1Cc1ccccc1)[C@H]23 | -11.8
COc1cc(-c2nnc(COC(=O)c3nn(CC(C)C)c(=O)c4ccccc34)o2)cc(OC)c1OC | -24.3
CCN(CC)C(=S)Nc1c(C)n(C)n(-c2ccccc2)c1=O | 13
COc1ccc(NC(=S)N/N=C2\CC(C)(C)Oc3ccc(OC)cc32)cc1 | 5.27
Cc1sc(NC(=O)Cn2cnnn2)nc1-c1ccc(Cl)cc1 | 1.56
CCCOC(=O)c1ccc(OC(=O)c2ccco2)cc1 | 9.34
